Reference: PubChem BioAssay (NCATS)
Where “and” joins values, the source holds several entries; their conditions need not be identical. Equal values may be shown once. Inconclusive means that the source gave no clear call. Such entries were picked first, then a sample of the others. Where the call is inconclusive, the potency comes from a doubtful curve fit. Calls of active or inactive are those of the source. Unless noted, the call rests on the fitted dose curve; in most records, active means well fitted inhibition curve with a large enough effect; inconclusive means small, poorly fitted or top-dose-only effect; inactive means no such curve, though single readings can be large or run the other way.

Columns and labels:
[1] = biological target: Aldehyde dehydrogenase, mitochondrial (Homo sapiens) (UniProt P05091); assay: qHTS for Inhibitors of the Aldehyde Dehydrogenase Family (ALDH2) Confirmatory screens (AID 2061303; active means well fitted inhibition curve with a large enough effect; inconclusive means small, poorly fitted or top-dose-only effect; inactive means no such curve, though single readings can be large or run the other way; title and protocol of this record describe different tests; further: nearly all actives have a fitted effect of over 45% in size); conditions: ALDH inhibition qHTS; activity change, negative = inhibition: at 45.4 µM (top of the series)
[2] = qHTS for Inhibitors of the Aldehyde Dehydrogenase Family (ALDH1A2, ALDH1A3, ALDH2, ALDH3A1) (AID 2061307); conditions: ALDH inhibition qHTS; activity change, negative = inhibition: at 50.3 µM (top of the series) unless noted; further: nearly all actives have a fitted effect of over 50% in size; on potency: test system not described further here
[3] = biological target: Retinaldehyde dehydrogenase 3 (Homo sapiens) (UniProt P47895); assay: qHTS for Inhibitors of the Aldehyde Dehydrogenase Family (ALDH1A3) Confirmatory screens (AID 2061311); conditions: activity change, negative = inhibition: at 46 µM (top of the series); further: nearly all actives have a fitted effect of over 60% in size
[4] = biological target: Retinal dehydrogenase 2 (Homo sapiens) (UniProt O94788); assay: qHTS for Inhibitors of the Aldehyde Dehydrogenase Family (ALDH1A2) Confirmation screens (AID 2061314); conditions: activity, negative = inhibition: at 45.9 µM (top of the series) unless noted; further: nearly all actives have a fitted effect of over 65% in size
[5] = biological target: Aldehyde dehydrogenase 1A1 (Homo sapiens) (UniProt P00352); assay: qHTS for Inhibitors of the Aldehyde Dehydrogenase Family (ALDH1A1) Confirmatory screens (AID 2061316); conditions: activity change, negative = inhibition: at 47.3 µM (top of the series); further: nearly all actives have a fitted effect of over 65% in size
[6] = biological target: Retinaldehyde dehydrogenase 3 (Homo sapiens) (UniProt P47895); assay: qHTS for Inhibitors of the Aldehyde Dehydrogenase Family (ALDH1A3) Primary screen (AID 2061315); conditions: ALDH inhibition qHTS; activity change, negative = inhibition: at 56 µM (top of the series) unless noted
Potency means the concentration at half of the fitted maximal effect; tags describe the fitted curve by direction and shape.

Row | SMILES | Potency [1] | Potency [2] | Potency [3] | Potency [4] | Potency [5] | Potency [6]
1 | Cc1c(Cl)cccc1NS(=O)(=O)c1cc2c(cc1F)NC(=O)CC2 | inactive | inconclusive: 31.8 µM [inhibitor, single point] | inactive | inconclusive: 25.2 µM [inhibitor, single point] | inactive | –
2 | C=CC/C=C\C/C=C\CCCCCCCc1cccc(O)c1C(=O)O | inconclusive: 13.9 µM [inhibitor, partial curve, poor fit] | inconclusive: 6.97 µM [inhibitor, partial curve] | inconclusive: 7.83 µM [inhibitor, partial curve] | inconclusive: 7.83 µM [inhibitor, partial curve] | inconclusive: 13.9 µM [inhibitor, partial curve] | –
3 | NC(=O)C1CCN(c2nc(-c3ccc4c(c3)OCCO4)cs2)CC1 | inactive | inconclusive: 25.2 µM [inhibitor, partial curve] | inconclusive: 22.5 µM [inhibitor, partial curve, poor fit] | inactive | inconclusive: 22.5 µM [inhibitor, partial curve, poor fit] | –
4 | O=C(NCc1ccccc1)c1csc(N2CCN(c3ccc(Cl)cc3)CC2)n1 | inconclusive: 3.98 µM [inhibitor, partial curve] | active: 2.82 µM | inconclusive: 10 µM [inhibitor, partial curve, poor fit] | inactive | inconclusive: 4.08 µM [inhibitor, full curve] | –
5 | O=C(NCc1ccc(F)cc1)c1ccc2nnc(-c3cccc(C(F)(F)F)c3)n2c1 | inactive | inconclusive: 17.8 µM [inhibitor, partial curve, poor fit] | inactive | inactive | inactive | –
6 | O=C1Nc2ccccc2/C1=C/c1cc(Cl)c(O)c(Cl)c1 | inconclusive: 12.7 µM [inhibitor, partial curve] | inconclusive: 20.1 µM [inhibitor, partial curve] | inconclusive: 12.7 µM [inhibitor, partial curve] | inconclusive: 11.3 µM [inhibitor, partial curve] | active: 17.9 µM | –
7 | COc1ccc(S(=O)(=O)N2CCN(S(=O)(=O)c3ccc4c(c3)OCCO4)CC2)cc1 | inconclusive: 3.55 µM [inhibitor, full curve, poor fit] | inactive | inconclusive: 22.5 µM [inhibitor, partial curve] | inconclusive: 20 µM [inhibitor, partial curve] | inconclusive: 20.1 µM [inhibitor, partial curve] | –
8 | CN1CCN(C(=O)c2ccc(-c3cnc4c(O)ccc(C(=O)O)c4c3)cc2)CC1 | inconclusive: 2.25 µM [inhibitor, partial curve] | inconclusive: 20 µM [inhibitor, partial curve, poor fit] | inconclusive: 22.5 µM [inhibitor, partial curve] | inconclusive: 0.283 µM [inhibitor, full curve] | inactive | –
9 | Cc1noc(C)c1-c1ccc2ncnc(NCc3cc(F)cc(F)c3)c2c1 | inconclusive: 44.7 µM [inhibitor, partial curve, poor fit] | inconclusive: 12.7 µM [inhibitor, partial curve] | inconclusive: 4.47 µM [inhibitor, full curve, poor fit] | inconclusive: 6.34 µM [inhibitor, full curve, poor fit] | inconclusive: 20.1 µM [inhibitor, partial curve] | –
10 | CS(=O)(=O)N1CCN(c2nc(-c3ccc(Br)cc3)cs2)CC1 | inconclusive: 12.6 µM [inhibitor, full curve, poor fit] | inconclusive: 20 µM [inhibitor, full curve, poor fit] | inconclusive: 35.5 µM [inhibitor, partial curve] | inactive | inconclusive: 20.1 µM [inhibitor, partial curve] | –
11 | CCOc1ccc(CCNC(=O)c2cc3c(s2)CCC3)cc1OCC | inconclusive: 12.7 µM [inhibitor, partial curve, poor fit] | inactive | inconclusive: 15.9 µM [inhibitor, partial curve] | active: 14.2 µM | inconclusive: 31.8 µM [inhibitor, single point] | –
12 | O=C(Nc1ccc2ccccc2c1)Nc1nnc(Br)s1 | active: 7.94 µM | active: 15.8 µM | inconclusive: 5.04 µM [inhibitor, partial curve] | inconclusive: 25.2 µM [inhibitor, partial curve] | inconclusive: 12.7 µM [inhibitor, partial curve] | –
13 | Cc1ccc(C[C@@H](NS(=O)(=O)c2ccc(C(=O)O)cc2)C(=O)O)cc1 | inactive | inactive | inactive | inactive | inactive | –
14 | O=C(OCC#CCSc1nnc(-c2cccc3ccccc23)o1)c1ccc(Br)cc1 | inconclusive: 25.2 µM [inhibitor, partial curve] | inactive | inconclusive: 14.2 µM [inhibitor, partial curve] | inconclusive: 14.2 µM [inhibitor, partial curve, poor fit] | inactive | –
15 | CCOc1ccc(N(C)S(=O)(=O)c2cc(-c3cc(C)no3)ccc2OC)cc1 | inconclusive: 0.0794 µM [inhibitor, full curve, poor fit] | inconclusive: 16.2 µM [inhibitor, partial curve] | inconclusive: 7.08 µM [inhibitor, full curve, poor fit] | inactive | inconclusive: 10.2 µM [inhibitor, partial curve] | –
16 | O=C(OCC#CCSc1nnc(-c2cccc3ccccc23)o1)C1CC1 | inactive | inconclusive: 2.25 µM [inhibitor, full curve] | inconclusive: 6.31 µM [inhibitor, full curve, poor fit] | inconclusive: 1.12 µM [inhibitor, full curve, poor fit] | inconclusive: 17.9 µM [inhibitor, partial curve, poor fit] | –
17 | COc1cccc(CNc2ccc(S(=O)(=O)Nc3ccc(C)nc3)cc2)c1O | inconclusive: 14.2 µM [inhibitor, partial curve, poor fit] | inactive | inconclusive: 25.2 µM [inhibitor, single point] | inconclusive: 35.7 µM [inhibitor, partial curve, poor fit] | inactive | –
18 | O=C(Nc1cccc(C(F)(F)F)c1)c1cc(-c2ccc(Cl)cc2)on1 | inactive | inconclusive: 14.1 µM [inhibitor, partial curve, poor fit] | inactive | inactive | inconclusive: 18.2 µM [inhibitor, partial curve] | –
19 | Cc1ccc(CNc2ccc(N3CCOCC3)cc2)cc1 | inconclusive: 2.83 µM [inhibitor, partial curve, poor fit] | inconclusive: 0.634 µM [inhibitor, full curve] | inconclusive: 1.42 µM [inhibitor, full curve] | – | inconclusive: 25.2 µM [inhibitor, partial curve, poor fit] | inconclusive: 25.1 µM [inhibitor, partial curve]
20 | CCCCC(=O)N1CCC(C(=O)Nc2ccc([S+](=O)([O-])Nc3nccs3)cc2)CC1 | inactive | inactive | inactive | – | inconclusive: 17.9 µM [inhibitor, partial curve, poor fit] | inactive
21 | O=C(O)c1cccc(S(=O)(=O)Nc2nccs2)c1 | inactive | inactive | inconclusive: 25.2 µM [inhibitor, partial curve, poor fit] | – | inactive | inconclusive: 14.1 µM [inhibitor, partial curve, poor fit]
22 | CNC(=S)NS(=O)(=O)c1cc(CCNC(=O)c2cc(Cl)ccc2OC)ccc1OC | inconclusive: 1.13 µM [inhibitor, full curve, poor fit] | inconclusive: 22.5 µM [inhibitor, partial curve] | inactive | inactive | active: 11.3 µM | –
23 | CC(=O)NC(c1ccco1)c1cc(Cl)c2ccc(Cl)nc2c1O (stereo not given) | inconclusive: 11.3 µM [inhibitor, partial curve, poor fit] | inconclusive: 7.98 µM [inhibitor, partial curve] | inconclusive: 14.2 µM [inhibitor, partial curve] | – | inconclusive: 10.1 µM [inhibitor, partial curve] | inconclusive: 12.6 µM [inhibitor, partial curve, poor fit]
24 | C/C(=C\CC/C(C)=C/CC[C@]1(C)CCc2cc(O)cc(C)c2O1)CC/C=C(\C)C(=O)O | inconclusive: 4.91 µM [inhibitor, partial curve, poor fit] and inconclusive: 31.6 µM [inhibitor, single point] | inconclusive: 2 µM [inhibitor, full curve, poor fit] and inconclusive: 17.8 µM [inhibitor, partial curve, poor fit] | inconclusive: 11 µM [inhibitor, partial curve] and inactive | inconclusive: 6.18 µM [inhibitor, partial curve] | inconclusive: 9.79 µM [inhibitor, partial curve] | –
